These results are taken from PubChem BioAssay AID463173 (ICCB-Longwood Screening Facility, Harvard Medical School, 2010).

Among all 52,000 compounds or so, about 4,300 (8.3%) were called active. Cut-off read from the data, not from the text of the source: active = survival mostly below about 52% (no sharp cut-off); inactive = mostly above about 56%. This is one part of the list.

The test system of the experiment is DeltatarO mutant. Kind of experiment: S. aureus survival, RN4220 and DeltatarO strains – OD600, teichoic acid synthesis inhibitors, primary screen (AID 463173). The conditions noted are these: S. aureus RN4220 wild type/DeltatarO growth, OD600, 18 h, hits give low values, screened at 18.75 µg/mL (by protocol).
For `CC(C)(C)NC(=O)Cn1cc(S(=O)(=O)Cc2ccccc2Cl)c2ccccc21`, the survival is inactive: 77%.
The same measure for `Cc1cccc(-n2c(=O)c3c(c4cc(C)ccc4n3C)n(CC(=O)Nc3ccc(C)c(C)c3)c2=O)c1`: inactive: 81%.
The same measure for `Cc1nnc(SCCNS(=O)(=O)c2ccccc2)s1`: inactive: 81%.
To `N#C/C(=C\Nc1ccccc1O)c1nc2ccccc2o1` belongs active: 1%; to `COC(=O)c1sccc1S(=O)(=O)N(CC(=O)NCc1ccc(F)cc1)c1ccccc1`, inactive: 73%.
Take `Cc1cccc(NC(=O)Cn2c(=O)n(Cc3nc(-c4ccccc4)no3)c(=O)c3ccccc32)c1`: the survival is inactive: 94%.
The same measure for `COc1ccc(CNC(=O)C2CCN(C(=O)N3CCOc4ccc(C)cc43)CC2)cc1`: inactive: 85%; for `CC1CCCN(C(=O)c2ccc(CSc3nc4ccncc4n3Cc3ccccc3)cc2)C1` (stereo not drawn): inactive: 101%; for `O=C(NCc1ccc(Cl)cc1)c1cc2cccc3c2n1CCS3`: inactive: 83%.
To `COc1ccc(NC(=O)N2CCN(Cc3nc4ccc(C)cc4o3)CC2)cc1OC` belongs inactive: 82%; to `CCCCNC(=O)CN1CCN(c2ccc(NC(=O)c3ccc(OC)cc3)cc2C(=O)O)CC1`, inactive: 85%; to `CN(C)c1ccc(-c2nnc(-c3cccnc3)o2)cc1`, inactive: 103%.
The same measure for `COc1ccc(-c2c(C#N)c(SCC(=O)Nc3ccc(C)c(C)c3)nc(C)c2C(=O)Nc2ccccc2)cc1OC`: inactive: 75%; for `Cc1ccc(N(C)S(=O)(=O)c2nnc(NC(=O)c3ccco3)s2)cc1`: inactive: 57%.
In the case of `C=C(C)CC1N(CCc2ccccc2)C(=O)C2C(C(=O)O)C3C=CC21O3` (stereo not drawn), the survival was inactive: 108%.
The same measure for `COc1ccc(C)cc1NS(=O)(=O)c1ccc2c(c1)CCCN2C(C)=O`: inactive: 135%; for `CCOC(=O)Cn1c(=N)n(CCOc2ccc(OC)cc2)c2ccccc21`: active: 43%.
To `COc1ccc(-c2nc(SCC(=O)NCC3CCCO3)c(-c3ccc(C)cc3)[nH]2)cc1OC` (stereo not drawn) belongs inactive: 66%.
Turning to `COc1cccc(CNC(=O)Cc2c(C)c3cc4c(C)coc4cc3oc2=O)c1`, the survival was inactive: 61%.
To `COc1cccc(NC(=O)c2csc3c2CCCCC3)c1` belongs active: 37%; to `CCc1ccc(NC(=O)N2CCN(c3nnc(C)c4c(C)n(-c5ccc(Cl)cc5)nc34)CC2)cc1`, inactive: 117%; to `COCCn1c(CCC(=O)Nc2ccc(OC)c(OC)c2)nc2cccnc21`, inactive: 94%.
The same measure for `O=C(NCc1ccccc1Cl)c1cc(-c2ccccc2)n[nH]1`: inactive: 95%; for `O=C(CS(=O)(=O)c1nc(-c2ccc(Cl)cc2)cn1-c1ccccc1)Nc1cccc(Cl)c1`: inactive: 68%.
To `O=C(Cn1c2ncccc2c(=O)n1-c1ccccc1)NCc1ccccc1` belongs inactive: 67%; to `Cc1ccc(NC(=O)CSc2nc(C)cc(C)c2C#N)cc1`, inactive: 94%.
With `COc1cccc(C(=O)CS)c1`, the survival is inactive: 100%.
The same measure for `Cc1ccc(NC(=O)c2ccc(F)c(S(=O)(=O)NCCc3ccccc3)c2)cc1F`: inactive: 97%.
Consider `CCOc1ccc(NC(=O)CSc2nc(-c3ccccc3)c3cc(OCC)ccc3n2)cc1`, for which the survival was inactive: 73%.
To `CN1C(=O)c2ccccc2N(C)C1c1ccc(F)cc1` (stereo not drawn) belongs inactive: 96%; to `O=C(NCc1ccccc1Cl)C(=O)NCC(c1ccc2c(c1)OCO2)N1CCOCC1` (stereo not drawn), inactive: 83%.
The same measure for `COc1ccc(CNC(=O)c2cnc3sc4cc(OC)ccc4n3c2=O)cc1`: inactive: 77%.
The same measure for `CCC(CC)C(=O)N1CCc2cc(OC)c(OC)cc2C1COc1ccc2c(C)cc(=O)oc2c1` (stereo not drawn): inactive: 83%; for `O=C(CSc1nc2ccccc2c(=O)n1Cc1ccco1)OC1CCCCC1`: inactive: 71%; for `O=C(c1cc(S(=O)(=O)N2CCCC2)c[nH]1)N1CCN(c2cccc(Cl)c2)CC1`: inactive: 98%.
As for `CCOc1ccc2nc(N(Cc3cccnc3)C(=O)c3ccco3)sc2c1`, the survival is inactive: 88%.
As to `CN(CC(=O)N1CCCC1=O)Cc1ccccc1`, the survival is inactive: 64%.
To `Cc1ccc(CNCc2ccc3c(c2)n(C)c(=O)n3C)cc1` belongs inactive: 92%; to `CCN1C(=O)SC(CC(=O)O)C1=O` (stereo not drawn), inactive: 88%.
The same measure for `O=C(CCNS(=O)(=O)c1ccc(Br)s1)Nc1ccc(Br)cc1`: active: 40%.
To `CCN1C(=O)c2ccccc2Sc2ccc(NC(=O)Cc3ccc(OC)c(OC)c3)cc21` belongs inactive: 80%; to `COc1ccc2c(c1)c(=O)c(S(=O)(=O)c1ccc(F)cc1)cn2CC(=O)Nc1ccc(C)cc1C`, inactive: 82%.
With `COc1cc(NS(=O)(=O)c2ccc(NC(=O)COc3ccc(Cl)cc3Cl)cc2)nc(OC)n1`, the survival was inactive: 77%.
The same measure for `CCOc1cccc(CC(=O)NCc2ccc3c(c2)CCN3C(=O)c2cccc(C)c2)c1OCC`: inactive: 54%; for `COc1ccc(CN(C(=O)Nc2cc(C)ccc2C)C2CCN(C(C)=O)CC2)cc1`: inactive: 87%; for `COc1ccc(C2C(C(=O)Nc3cccnc3)=C(C)Nc3nc(-c4ccc(OC)c(OC)c4)nn32)cc1` (stereo not drawn): inactive: 150%.
Take `O=C(Nc1cc(Cl)ccc1O)c1cc(-c2ccc3c(c2)OCO3)on1`: the survival was inactive: 58%.
The same measure for `CCOC(=O)c1c(C)[nH]c(CCC(=O)NCc2cc(Br)ccc2OC)c1C`: inactive: 115%.
The same measure for `Cc1c(C(=O)N2CCCC2)oc2c1-c1nn(CC(=O)NCc3ccccc3F)cc1CC2`: inactive: 75%; for `CCCSc1ncc(Cl)c(C(=O)NCc2ccc(C)cc2)n1`: inactive: 57%; for `COc1ccc(CNC(=O)CCS(=O)(=O)c2cc3c4c(c2)CCN4C(=O)CC3)cc1OC`: inactive: 66%.
To `Cc1cc(Cl)ccc1NC(=O)CCS(=O)(=O)c1ccc2c(c1)CC(C)N2C(=O)C1CC1` (stereo not drawn) belongs inactive: 126%; to `CCCCCc1nc2ccccc2c(=O)n1N`, inactive: 93%.
On to `CC(C)NC(=O)C1=CC(c2ccc3c(c2)OCO3)=NS(=O)(=O)N1C`, for which the survival is inactive: 86%.
In the case of `COc1ccccc1CNC(=O)c1cc2cccc3c2n1CCS3`, the survival is inactive: 99%.
On to `CCc1nn2c(=O)c(S(=O)(=O)Nc3ccc(C)cc3C)c(C)nc2s1`, for which the survival was inactive: 68%.
To `COc1ccc(-c2nc(CSCC(=O)NCCc3ccc(OC)c(OC)c3)c(C)o2)cc1` belongs inactive: 79%; to `CCN(C(=O)CSc1nnc(-c2ccccc2Br)o1)c1nc(C)cs1`, inactive: 71%.
